# Measured values as given in publication PMC10726135.
# The other results are listed elsewhere or left out. At the low end of the ranking the order means little. Measured with an extract: partners may take part in the binding.
# Target: T1, HNF4alpha8 (COS-7 nuclear extract) (UniProt P41235-5)
# T1 sequence: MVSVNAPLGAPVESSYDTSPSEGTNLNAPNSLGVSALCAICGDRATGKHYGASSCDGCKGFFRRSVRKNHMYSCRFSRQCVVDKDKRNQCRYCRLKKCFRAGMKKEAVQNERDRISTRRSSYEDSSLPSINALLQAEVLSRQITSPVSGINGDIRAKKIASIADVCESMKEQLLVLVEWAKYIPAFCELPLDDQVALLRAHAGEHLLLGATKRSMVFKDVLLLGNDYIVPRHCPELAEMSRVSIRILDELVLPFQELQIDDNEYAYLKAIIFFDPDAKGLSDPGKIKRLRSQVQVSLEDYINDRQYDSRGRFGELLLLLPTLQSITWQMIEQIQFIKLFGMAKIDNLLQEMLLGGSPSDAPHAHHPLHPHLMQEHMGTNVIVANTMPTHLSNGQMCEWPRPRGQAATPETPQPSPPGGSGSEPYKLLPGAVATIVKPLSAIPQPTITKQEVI
# Assay: protein-binding microarray
# Conditions: COS-7 nuclear extract on double-stranded Agilent 4x180k PBM; binding buffer, salt, pH and temperature not given; high values mean tight binding; double strand, one strand shown; sequences stand for … in …GCCTAGGGAGATTAGAGTATCGGTCGA
row,Sequence,binding signal (log2 normalized intensity)
1,GCTGGTCAAAGGGCATTACTTGCTGGAGAA,3.83
2,GACAGGGGAGATAAGGCCCGGCTGATGGGA,-1.28
3,TGTATTCCCTCTCTTCAGAATGGCCTGCCC,1.93
4,TTACAACGCTGTTGTCTGTGACTGGGGTCA,4.26
5,TCAAGGGAATCTGCTGTAATAAAGCCTTAT,-1.27
6,GAATACTGCTGGGTCAGTTTATCTAAGATT,1.06
7,AAATAAGGATAAAGTAAGGTGAAGCCCAGC,-1.36
8,CATGTCTAAAGGCTGTGTCGGTATAAGTTC,1.67
9,CTTTGTAGCACTTTGGACCTCCACTTTGGA,3.36
10,CTGTACCAATTATTGCGAGTTTAGGAGGGT,0.678
11,CAGCAGGCCAGGCCAAATCAGAACTGAGTT,-1.39
12,CAAATGGAGAAGGTCTAAGTAAACTGTTCA,-0.633
13,AAAGCGCAGCGCGGGGCTCAAAGGCGGCCC,-1.23
14,GGTAAAGGTGAAGGCTGACCACGGGGGCCG,-1.35
15,CACCTTAGAGGGACGAAGGTCACTAATTGG,3.69
16,TTGGGTCACAATCACAAATGCCTTCAGGGG,0.936
17,CTCTCTTTCTTCCCCCACTCCAAGTTCCTT,3.92
18,TACACAGACCCTCTTTTCTTTGTACCGTAT,2.09
19,TCCGGAAACGTATGACTTTGGAGCACTCAT,-0.716
20,CACAGAACAAACAGTACATTCTGGAATGAT,-1.33
21,TCTGATGCCATGATAAGCAGTGTGGACTTT,7.54
22,CAGTAAAAGCTCTACCTGACCTCCCAAAAT,2.26
23,GCGAAGGCAGTGTGGCACCCTCCCTTCCCG,2.77
24,TCCAGGAGTATGTGTTTGCTTTACCTTAGT,1.07

row,Sequence,binding signal (log2 normalized intensity)
1,TGAGTCTGGTGTTTCCCTGTTTGCTTCTGC,1.01
2,CTACCTCTTAGCTACCCTGTTTACAATGGA,1.45
3,AGATTCTGCAAACCTATTAATATATTCATA,-0.929
4,CCCGGCAGCCCTGCTCCCCGCCTTGGCCTC,1.68
5,TGTTTGACGACTGTCTGCCATGGGCCTGGC,-1.05
6,TCATTGCACAGTTACTCCACAACTTGTTCT,0.0687
7,TAATATCTAAGATGTAGCTGCAAAGATAAG,-1.26
8,TGCTTAAGTGGCTCACCCAAGTCACACAGT,-1.26
9,ATTGGCTGTTTAGTAGAGAGCAGGTACCAC,0.492
10,TATGCAAATGTTATGGCTGGTTTGGTCTTT,2.76
11,CAGCAGAGAGTTTTCCTTGGCTGTGCTGCC,-1.16
12,ACCGCCTACCTTTGGACTTCTCATTACATG,3.42
13,GGTTAGAATCCTTATCTGGTGTGCTTTCTG,1.76
14,GCGCCAATACCTGCCGCGCGGGGCGCCTCC,-1.27
15,TCCGAGATAAGGCGTCTTATCAGCCCCCAT,3.96
16,AGATAAGAGCCACCCTCAAATCAGTGAAGG,-1.38
17,CAGTACAAATAAACCTTTGACCAATTGACC,4.34
18,AGTTTGACCTGGAGCCAGGGCCTTTTCAAG,-1.15
19,ACTCATGGGCAAGATGGCTCTCCCGGGGCG,-1.17
20,GCTGAGAGAGTCCTTGTTTGGTTAGTGCTG,0.499
21,CAAAGGATGGAAGCTCTGAAAGCTTCAAAG,-1.36
22,AATGAGGCGACATCAAAGCATTTGGAGATT,-1.25
23,GTATCTTGTCTGACTGTGATACCAGGGGTC,3.75
24,AGTGTCACAAACTATCAGTGAAGAGCAAAC,-1.46

row,Sequence,binding signal (log2 normalized intensity)
1,ACCAGCCCACTCTTAGCAGAGATTCCTGCT,-1.36
2,GGCCTGGTTCGGGATTATGGCCGGCCCCTG,0.388
3,TCACCTGGCTCTGAAAAACAAAATGCATTT,-0.57
4,GGTGAAGCTTGGGCAGCACAGCCTCCCTGT,-1.22
5,CTCACCAGTGGGCCCAGAGCACAACCTTTG,1.42
6,CCATGACGCAAGCGAGTAAGGCCCGTGAGA,-1.4
7,TCCTTTGGTGCAAATACCATCCCCAGAGCC,1.92
8,ACACCTGCGTGTACTAAGGTCTTAAGTGTC,0.834
9,CAAACTCATTTTGATCTTTGTGTACAAAGC,1.76
10,CAGGGACACATGCCCCTTCCCTCCCTGCAA,3.31
11,TTCTTTGGTACTTTGAGCCAGTAAGTCTAG,1.94
12,CCACAAACAAACAGGGTGGCTTTGATCTGG,0.266
13,AAACCTACTTAGATCAAGATTTTCAACTTG,-1.33
14,GTGAAGTGGTAGGACAGGGCCCTTCACTAT,-1.41
15,TTGTGTCACCAATGGTAACTGAAAGTCATG,-0.0656
16,ATCTCCAAACGAGACTTTGGACTTTGGACT,11.9
17,TGAGCCGCCAGGCGGGTTCTGCCATCTCGC,-0.757
18,AATGTTATTTATCCAGCTGGGTATACTGAC,1.08
19,AAAGGCAGCCCCTTATCAGGAGAGGAGGCC,-1.27
20,AAGTCTGAAATCTACAGGACAGCCAGGCAG,-1.38
21,CTGGACAGGTCCAAGGTTCTCCAGGGACCC,1.35
22,TGCCTCAGTAGTAGTGAAAAATGAATAACT,-1.1
23,CTGACCAGCTCCAAAGTCCGCCACTAGCAA,1.52
24,GTTTATCTGCCTGTGGATAGCTGGCATGCA,0.0443

row,Sequence,binding signal (log2 normalized intensity)
1,CCCAGAGGCTGGTCAGAATTCCATCCCAGG,-1.25
2,ATTAAGCAAGATATGTGCCTGCCTTATACA,0.303
3,ATTGCCAAGGGGGTGGTGAAATGGGGGAAG,-1.31
4,ATTTTAGGAGCCTCCAATCAGGACAGACTG,-1.36
5,CCTTCACCAGAGCCGTCTGGTAAATTTCTA,-1.33
6,GTGTTCACACCACACTCTCCTCCTGGCCTC,-1.03
7,ACATGACCACCTGGTTTAAGTCACTATCAA,-1.27
8,TTGCTGACCCCCTACATAGAGAGCAGTCTT,2.75
9,TGTGTTTCTCAATGTCTTTCCTGCAGAGGG,0.718
10,GATGGTAACCACACCAAGGGGCCCCCACTT,-1.15
11,CCAAGACCTTTGAAGCTTGCAACAAAGGGG,-0.475
12,ATATTCCAAATTCCAGCTGAAGTTCCCAGC,-1.27
13,AATCTGAATTAACTCTTTACACAGTTCTGA,-0.988
14,TAGACTCCAGGCTTGTCCTTTTGACCACAG,2.85
15,GCTCTGCATCCTTCCCTAAGCAGCTGCAGT,-1.18
16,ACCTTCTACCGTACCTAGGACAAAGCAAAC,-1.25
17,AAAGTTCACCACTTTTGCAATGTTTCCAAA,0.374
18,GCTGGAACAGGCTGGGACACGCCTGCCCTC,1.32
19,GGAATGAGCAGGAACCTTGTGGTGGTGAAA,0.216
20,ACCAGACTACCTCTTTAGGCTGGACTCTGA,4.7
21,AGTGGACTTTGACCTTGTTTTCAATGACTA,7.8
